Results from PubChem BioAssay AID652104 (National Center for Advancing Translational Sciences (NCATS), 2013).
The whole screen tested about 410,000 compounds, of which about 7,200 (1.8%) were called active. Inconclusive results, whose numbers are uncertain, are shown with a selection of clear calls. The call rests on the fitted dose curve; in most records, active means well fitted activation curve with a large enough effect; inconclusive means small, poorly fitted or top-dose-only effect, or another doubt; inactive means no such curve, though single readings can be large or run the other way. Potencies of inconclusive entries are left out as doubtful fits. The source holds several records for some structures; these can differ, active in one and inactive in another.
Potency means the concentration at half of the fitted maximal effect; tags describe the fitted curve by direction and shape.

Test: qHTS of TDP-43 Inhibitors; further: nearly all actives have a fitted effect of over 50% in size; on growth rescue (activation): % of control where 0% means no effect
Conditions: TDP-43 expressing yeast growth rescue, BacTiter-Glo, 24 h; growth rescue (activation): at 46.1 µM (top of the series) unless noted
Procedure, shortened: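 Readout is BacTiter-Glo luminescence of cell growth, so inhibitors register as activators. TDP-43-expressing yeast at OD600=0.02 in galactose medium, after raffinose pregrowth to mid-log, were incubated with compound for 24 hr at 30 deg C.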
For O=C(Nc1ccc(Cl)cc1)N1CCC(c2ccccc2)C1 (stereo not given), the Potency was active: 11.2 µM. In the case of O=C(O)/C=C/C(=O)Nc1ccccc1-c1ccccc1, the Potency is reported as inconclusive [activator, single point]. In the case of Cc1ccccc1N1CCN(C(=O)C2CCC(=O)N(C3CCCC3)C2)CC1 (stereo not given), the “growth rescue (activation)” value is reported as inactive: -2.82%. For COc1ccc(Oc2c(Cl)cnn(-c3ccccc3)c2=O)cc1, the Potency was inconclusive [activator, single point]. In the case of COc1ccc(C(=O)NC2(C(F)(F)F)NC(=O)N(CCCc3ccccc3)C2=O)c(OC)c1OC (stereo not given), the Potency is reported as active: 20 µM. In the case of COc1ccc(CCNC(=O)c2cccc(C(=O)NCCc3ccc(OC)cc3)n2)cc1, the Potency is reported as inconclusive [activator, partial curve]. For CC(=O)c1ccc(NC(=O)C2Cc3ccccc3CN2C(=O)c2ccccc2)cc1 (stereo not given), the Potency was inconclusive [activator, single point]. For CCN1C(=O)[C@H]2[C@@H](c3ccc(C(F)(F)F)cc3)N[C@]3(CCCN(Cc4ccc(F)cc4)C3=O)[C@H]2C1=O, the Potency was inconclusive [activator, partial curve]. In the case of Cc1nn(C(C)C(=O)N2CCN(c3ccccn3)CC2)c(=O)c2cc3occc3n12 (stereo not given), the “growth rescue (activation)” value is reported as inactive: 3.07%. In the case of O=C(NC(=S)Nc1ccccc1Br)C1CCC1, the Potency is reported as inconclusive [activator, single point]. In the case of COc1cc(Br)cc(CNc2ccc(F)c([N+](=O)[O-])c2)c1O, the Potency is reported as inconclusive [activator, single point]. With Cc1ccc(-n2nc(C)c(Sc3ccccc3[N+](=O)[O-])c2N)cc1 the Potency was inconclusive [activator, single point]. For COc1cc(C)c(S(=O)(=O)NCc2ccc3c(c2)OCO3)cc1C, the Potency was active: 15.8 µM. With Cc1nc2c(c(C)nn2-c2ccccc2)c(C)c1CCC(=O)NCCCOC(C)C the growth rescue (activation) was inconclusive: 31.3% [activator]. In the case of CC1(C)CN(c2ccccc2)C(=O)[C@H]1CC(=O)Nc1ccccc1, the Potency is reported as inconclusive [activator, single point]. For CCCCSc1nnc2c(n1)OC(C)N(C(C)=O)c1ccccc1-2 (stereo not given), the Potency was inconclusive [activator, partial curve]. With COC(=O)c1sc(S(=O)(=O)N2CCCCC2C)c(C(=O)OC)c1C (stereo not given) the “growth rescue (activation)” value was inactive: 6.35%. In the case of CCNC(=O)Cn1nc(C)n2c(cc3c(OC)cccc32)c1=O, the “growth rescue (activation)” value is reported as inactive: 18.2%. With CCOC(=O)c1cccc(NS(=O)(=O)c2cc3c(cc2C)NC(=O)CO3)c1 the growth rescue (activation) was inactive: 22% [at 9.22 µM]. With Cc1ccc(NC(=O)CN2C(=O)CC(C)Sc3ccccc32)c(C)c1 (stereo not given) the Potency was active: 17.8 µM. For O=C(Oc1ccccc1C(=O)Nc1ccccc1)c1ccc(Br)c([N+](=O)[O-])c1, the Potency was inconclusive [activator, partial curve]. In the case of Cn1c(C(=O)O)cc2cc(Oc3ccccc3)ccc21, the Potency is reported as active: 22.4 µM. In the case of COc1ccc(Cn2c(=O)sc3ccccc3c2=O)cc1, the Potency is reported as active: 11.2 µM. With Cc1ccc(CNC(=O)CS(=O)Cc2nc(-c3ccccc3C)oc2C)cc1 (stereo not given) the Potency was inconclusive [activator, partial curve, poor fit]. With O=C(Nc1ccc(F)c(Cl)c1)C1CC2CCC1C2 (stereo not given) the Potency was inconclusive [activator, single point]. With O=Cc1ccc(-n2cc(C=O)c3ccccc32)cc1 the “growth rescue (activation)” value was inactive: 2.94%. For Fc1ccc(/C=C/c2nnc(-c3cccs3)o2)cc1, the “growth rescue (activation)” value was inactive: -3.35%. In the case of O=C(CC1N=C2c3ccccc3N=C(SCC(=O)Nc3ccc(F)cc3)N2C1=O)NCc1cccs1 (stereo not given), the “growth rescue (activation)” value is reported as inactive: 13.4%. In the case of CCCNC(=O)CSc1nc(-c2ccc(OC)cc2)cc(C(F)(F)F)n1, the “growth rescue (activation)” value is reported as inactive: 20.6%. For CN1C(=O)CC(N2CCN(C(=O)CN3CCCC3)CC2)C1=O (stereo not given), the “growth rescue (activation)” value was inactive: -1.48%. In the case of CCOC(=O)C1=CCN(S(=O)(=O)c2ccccc2Br)C1c1ccc(Br)cc1 (stereo not given), the “growth rescue (activation)” value is reported as inactive: 13%. With CCCc1ccc(Oc2cn[nH]c2-c2ccc(O)cc2O)cc1 the Potency was inconclusive [activator, single point]. For N#CCOc1nc(N2CCOCC2)nc(N2CCOCC2)n1, the “growth rescue (activation)” value was inactive: -14.2%. With CC1CCN(C(=O)c2cccc(NC(=O)c3nsc4ccccc34)c2)CC1 the Potency was inconclusive [activator, single point]. With Cn1c(SCC(=O)Nc2nc3ccccc3s2)ncc(C(=O)Nc2ccc(F)cc2)c1=O the Potency was inconclusive [activator, full curve, poor fit]. For COCCNC(=O)c1ccc2c(c1)N=C(C)c1cc(C)ccc1S2, the “growth rescue (activation)” value was inactive: 4.19%. In the case of CCOC(=O)C(Cc1ccnnc1)=NO, the “growth rescue (activation)” value is reported as inactive: 0%. For O=C(c1ccco1)N1CCN(c2ccc(Cl)cc2)CC1, the Potency was inconclusive [activator, partial curve]. With CN(C)c1ccc(NC(=O)CSC2=Nc3ccccc3C3=NC(CCC(=O)NCc4cccs4)C(=O)N23)cc1 (stereo not given) the “growth rescue (activation)” value was inactive: 0%. For O=C(NCc1ccccc1)c1ccc2oc(=O)n(Cc3ccccc3)c2c1, the Potency was active: 22.4 µM. With Cc1ccccc1CNC(=O)Nc1ccc2c(c1)N(C)C(=O)c1ccccc1S2 the “growth rescue (activation)” value was inactive: -7.25%. For COc1ccc(Nc2nc(-c3c[nH]c4ccccc34)cs2)cc1, the Potency was inconclusive [activator, partial curve, poor fit]. For CC(C)(C)C1CCc2c(C(=O)NNC(=O)/C=C/C(=O)O)csc2C1 (stereo not given), the Potency was inconclusive [activator, full curve, poor fit]. With O=[N+]([O-])c1ccc(/C=N/NS(=O)(=O)c2ccc(Cl)cc2)o1 the Potency was inconclusive [activator, full curve, poor fit]. With CCn1c(O)c(C=Nc2ccccc2)sc1=S the “growth rescue (activation)” value was inactive: 3.67%. For Fc1ccccc1NC(=S)NCCc1ccccc1, the Potency was inconclusive [activator, partial curve]. With O=C(Nc1ccc2ccccc2c1)c1ccc(Br)o1 the Potency was active: 20 µM. For CCOc1ncccc1C(=O)OCc1ccc(C(=O)OC)o1, the Potency was inconclusive [activator, partial curve]. In the case of COc1cc(C(=O)O/N=C(\N)c2ccccn2)cc(OC)c1OC, the Potency is reported as inconclusive [activator, partial curve]. With CCOc1ccccc1NC(c1nnc(-c2ccccc2)o1)c1ccc(F)cc1Cl (stereo not given) the “growth rescue (activation)” value was inactive: -0.856%. For CCOc1ccc(C2C=C(c3ccc(C)cc3)Nc3nnnn32)cc1 (stereo not given), the Potency was active: 22.4 µM. In the case of Cc1ccc(CCNC(=O)C2CC(c3ccccc3C(F)(F)F)=NO2)cc1 (stereo not given), the Potency is reported as inconclusive [activator, partial curve]. In the case of CCc1ccc(C(C)NC(=O)C2(C)CC2(Br)Br)cc1 (stereo not given), the Potency is reported as inconclusive [activator, partial curve]. In the case of COc1ccc(-c2csc(NC(=O)c3c(C)noc3C)n2)cc1, the Potency is reported as inconclusive [activator, partial curve]. In the case of O=C(c1ccccc1)N1N=C(C(F)(F)F)CC1(O)c1ccccc1 (stereo not given), the Potency is reported as inconclusive [activator, partial curve, poor fit]. In the case of Fc1ccccc1CSc1ncnc2c1ncn2C1CCCCO1 (stereo not given), the Potency is reported as inconclusive [activator, single point]. For CCc1ccc(NS(=O)(=O)c2ccc3[nH]cc(C(=O)N(C)Cc4ccco4)c(=O)c3c2)cc1, the Potency was inconclusive [activator, full curve, poor fit]. For N#Cc1ccc(CSc2nnc(-c3cccnc3)o2)cc1, the Potency was inconclusive [activator, partial curve]. In the case of CC(=O)c1ccc(OCCCC(=O)OCC(=O)Nc2c(C)nn(-c3ccccc3)c2C)cc1, the “growth rescue (activation)” value is reported as inactive: 20%. In the case of O=c1cc(-c2ccccc2)c2ccc3c(c2o1)CN(Cc1ccccc1)CO3, the “growth rescue (activation)” value is reported as inactive: 16.5%. With CCn1c(SCc2cccc(F)c2)nc2c(c1=O)SCC2 the “growth rescue (activation)” value was inactive: 0%. In the case of CN(C(=O)CSc1nc2ccc(NC(=O)COc3ccccc3)cc2s1)c1ccccc1, the “growth rescue (activation)” value is reported as inactive: 27.4%. For O=S(=O)(c1ccccc1)c1cnn2c(C(F)(F)F)cc(-c3ccc(F)cc3)nc12, the “growth rescue (activation)” value was inactive: -4.11%. With COC(=O)c1cc(OC)c(OC)cc1NC(=O)Nc1ccccc1OC the Potency was inconclusive [activator, partial curve]. With Nc1ccccc1C#Cc1ccc2[nH]ccc2c1 the Potency was inconclusive [activator, single point]. For Cc1ccc(CNc2cc(C)nc3nc(-c4cccc(C)c4)nn23)cc1, the Potency was active: 20 µM. In the case of Cc1ccc(CNc2nccn(-c3cc(C)cc(C)c3)c2=O)cc1, the Potency is reported as inconclusive [activator, partial curve]. With Cc1ccc(/C=C2\C(=O)Nc3ccccc32)o1 the Potency was inconclusive [activator, partial curve]. In the case of Cc1cccc(NC(=O)COc2cccc3c(=O)n(C)ccc23)c1C, the Potency is reported as inconclusive [activator, partial curve]. In the case of N/C(=N\OC(=O)Oc1ccccc1)c1cccc([N+](=O)[O-])c1, the “growth rescue (activation)” value is reported as inactive: 15.6%. For Cc1ccc(OCC(=O)Nc2ccc3c(c2)OCO3)c(C)c1, the Potency was inconclusive [activator, full curve, poor fit]. With COc1cc(CC(=O)OCC(=O)Nc2cc([N+](=O)[O-])ccc2Cl)cc(OC)c1OC the Potency was inconclusive [activator, partial curve]. With Cn1c(=O)c(=O)n(C)c2cc([N+](=O)[O-])c([N+](=O)[O-])cc21 the “growth rescue (activation)” value was inactive: 15.6%. With COc1cc(/C=N/NC(=S)NC2CC3CCC2C3)ccc1O (stereo not given) the Potency was active: 22.4 µM. In the case of COc1ccc(NC(=O)C2CCN(c3cnccn3)CC2)cc1Cl, the Potency is reported as inconclusive [activator, partial curve].
